# Test results as given in PubChem BioAssay AID488969 (Vanderbilt High Throughput Screening Facility, 2010).
# In all, about 110,000 compounds were measured (“z-score”: median about -0.1, highest 2% from about 2 on). The list shows a part of the results. Calls of active or inactive are those of the source.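 How the source made its calls: active means z-score in the third read window above 3 or below -3; inactive means the rest.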
# Biological target: Metabotropic glutamate receptor 8 (Rattus norvegicus) (UniProt P70579)
# Test: rat mGluR8 modulators via GIRK flux, primary screen, cell-based, thallium flux, HTS (AID 488969)
# Settings: HEK293 rat mGluR8, GIRK (G protein-gated inwardly rectifying potassium channel) thallium flux, FluoZin2; at 10 µM; stronger effect = higher value; submaximal glutamate (EC20) added with thallium
# Sequence of UniProt P70579 (P70579 whole entry, looked up): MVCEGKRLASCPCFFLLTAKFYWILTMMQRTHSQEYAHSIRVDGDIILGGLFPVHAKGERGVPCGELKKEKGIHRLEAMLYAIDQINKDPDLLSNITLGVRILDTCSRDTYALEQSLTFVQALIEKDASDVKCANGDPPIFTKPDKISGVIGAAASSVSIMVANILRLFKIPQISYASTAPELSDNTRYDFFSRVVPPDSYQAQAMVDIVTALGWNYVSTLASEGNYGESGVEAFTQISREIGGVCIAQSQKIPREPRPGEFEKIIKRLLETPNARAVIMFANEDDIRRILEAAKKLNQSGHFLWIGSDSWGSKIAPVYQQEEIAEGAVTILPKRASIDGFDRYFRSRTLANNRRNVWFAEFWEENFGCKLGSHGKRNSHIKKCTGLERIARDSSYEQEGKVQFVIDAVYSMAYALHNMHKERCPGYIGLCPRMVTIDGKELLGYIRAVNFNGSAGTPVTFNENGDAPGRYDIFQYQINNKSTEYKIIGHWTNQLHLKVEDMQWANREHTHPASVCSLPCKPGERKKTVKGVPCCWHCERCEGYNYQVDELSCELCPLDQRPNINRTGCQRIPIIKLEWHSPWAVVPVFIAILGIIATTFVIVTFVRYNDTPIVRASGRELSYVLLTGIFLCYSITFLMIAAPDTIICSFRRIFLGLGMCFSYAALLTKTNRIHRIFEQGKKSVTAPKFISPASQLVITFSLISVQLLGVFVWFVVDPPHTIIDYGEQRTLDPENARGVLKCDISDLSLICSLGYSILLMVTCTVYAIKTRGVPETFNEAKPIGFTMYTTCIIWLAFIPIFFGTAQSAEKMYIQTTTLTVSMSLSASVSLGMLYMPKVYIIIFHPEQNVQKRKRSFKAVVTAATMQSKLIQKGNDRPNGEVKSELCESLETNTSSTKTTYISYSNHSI
row,Compound,z-score
1,N#Cc1cc2c(nc1Cl)CCCC2,0.0855
2,O=C(Nc1cc(S(=O)(=O)N2CCOCC2)ccc1O)c1ccco1,-0.157
3,CCSc1cc(C2C(C(=O)OC)=C(C)NC3=C2C(=O)CCC3)c(C)o1 (configuration not stated),-0.493
4,O=C(Nc1cnn(Cc2ccc(F)cc2)c1)c1cnccn1,0.166
5,O=C(NN1C(=O)C2C3C=CC(O3)C2C1=O)c1cccc(O)c1 (configuration not stated),0.0539
6,Cc1ccc(NC(=O)c2c([N+](=O)[O-])c(C(C)(C)C)nn2C)c(C)c1,-0.094
7,COc1ccc(Br)cc1/C=C/C(=O)c1ccc(NC(C)=O)cc1,-0.385
8,COc1cccc(-c2cc(C(=O)O)[nH]n2)c1,0.00896
9,CCC1CCC(c2nnc(-c3ccc(Br)cc3)o2)CC1 (configuration not stated),-1.29
10,CCN(CC)CCOc1c(Br)ccc2c1sc1nc3n(c(=O)c12)CCC3,0.601
11,Cc1cccc(/C=N/NC(=O)NC2CCCCC2)c1,-0.122
12,COc1ccccc1OCCNC(=O)c1ccc(S(=O)(=O)N(C)C)cc1,0.0014
13,CCOC(=O)N1CCN(c2nc(-c3ccc(F)cc3)cs2)CC1,-0.404
14,Fc1ccc(C(CCCn2nnc(-c3cccnc3)n2)c2ccc(F)cc2)cc1,1
15,O=C(CC1SC(=O)N(Cc2cccc3ccccc23)C1=O)Nc1nccs1 (configuration not stated),-0.096
16,Oc1ccc(CNc2ccccc2)c2cccnc12,0.0879
17,Cc1cc(CSc2ccccc2)ccc1NC(=O)COc1ccccc1,0.0643
18,Cc1cc(C)nc(N2CCC(C(=O)NCc3ccccc3)CC2)n1,-0.292
19,COc1cc(S(=O)(=O)Nc2cccc(C)c2)ccc1NC(=O)c1ccncc1,0.196
20,COc1cccc(-c2nnc3n2N=C(C(C)(C)C)CS3)c1,-0.615
21,O=C(Nc1nnc(-c2ccccc2)o1)C1CCCCC1,0.0922
22,CCNC(=O)C12CCC(C)(C(=O)C1Br)C2(C)C (configuration not stated),-0.13
23,CCOC(=O)Cc1csc(NC(=O)Nc2ccccc2)n1,active: 3.05

row,Compound,z-score
1,O=C(CN1C(=O)c2ccccc2S1(=O)=O)N1CCc2ccccc2C1,-0.0825
2,Cc1nn(Cc2ccccc2)c(N)c1C#N,-0.0342
3,C/C(Cn1nnc([N+](=O)[O-])n1)=N\NC(=O)c1ccc(Cl)c(Cl)c1,0.223
4,CC(C)C(=O)Nc1nnc(Sc2ccc(N(C)C)cc2)s1,-0.137
5,NNc1nc2ccc(Cl)cc2s1,-0.169
6,O=C(CN1CCOCC1)Nc1ccc(-c2nc3ccccc3[nH]2)cc1,-0.309
7,CCCCCc1nnc(NS(C)(=O)=O)s1,-0.0105
8,CCC1Oc2ccccc2N(CC(=O)NCCc2ccc(OC)c(OC)c2)C1=O (configuration not stated),-0.997
9,CCOc1ccc(NCC(=O)N/N=C/C=C/c2ccccc2)cc1,-0.235
10,O=C(c1cc2ncc(Br)cn2n1)N1CCN(C(=O)c2ccco2)CC1,0.428
11,NNc1nc(-c2ccccc2)nc2sc3c(c12)CCCC3,-0.194
12,Cc1nnc(NC(=O)CSc2cn(CCNC(=O)c3ccccc3)c3ccccc23)s1,-0.0495
13,COc1cc2c(cc1OC)CN(C(=O)COc1ccc(C#N)cc1)CC2,0.0723
14,COc1ccccc1/C=C/C=N/NC(=O)Cc1cccn1C,-0.14
15,Cc1ccc2[nH]c(=O)c(C(c3nnnn3C(C)(C)C)N(Cc3ccco3)CC3CCCO3)cc2c1 (configuration not stated),-0.11
16,COc1cccc(C(=O)N2CCN(C(=O)c3cccs3)CC2)c1OC,-0.02
17,COC(=O)c1sccc1NC(=O)CSc1cccc(Cl)c1Cl,-0.0544
18,CCn1c(O)c(/C=N/N=C/c2ccccc2)c2ccc(C3=NNC(=O)CC3)cc21,-0.86
19,Cc1ccc(OCC(=O)OCC(=O)c2c(N)n(C)c(=O)n(C)c2=O)cc1C,-0.0815
20,CCCCN(CC)Cc1ccc(CNC(=O)Nc2ccc(F)cc2)o1,0.401
21,Nc1cccnc1Sc1cccc(Cl)c1,0.183
22,COc1ccc(OC)c(NC(=O)Nc2ccc(Cl)cc2)c1,0.245
23,Cc1ccc(C(=O)Nc2cnc3sc(C)nn3c2=O)cc1,0.366

row,Compound,z-score
1,Cc1ccc2nc(NC(=O)c3ccc4c(c3)OCO4)sc2c1,-0.0885
2,CCOC(=O)C1=C(C)NC2=C(C(=O)CCC2)C1c1ccc(O)c(OCC)c1 (configuration not stated),0.423
3,Cc1cc(C)c(C#N)c(SCC(=O)N2CCCCC2)n1,-0.063
4,Cc1cc(C)n(-c2ccc(C(=O)Oc3ccc4c(c3)OCO4)cc2)n1,0.31
5,CCCn1c(SCC(=O)c2ccc3c(c2)NC(=O)CO3)nc2ccccc21,0.211
6,CN(Cc1nc(-c2cccnc2)no1)S(=O)(=O)c1ccc2ccccc2c1,0.505
7,CCCCCC(=O)Nc1nc(C)c(-c2csc(Nc3ccccc3OC)n2)s1,-0.163
8,CC(C)Oc1ccc(N2CC(C(=O)Nc3ccc(N4CCOCC4)cc3)CC2=O)cc1 (configuration not stated),0.469
9,COc1ccc(C(=O)CN2CCN(c3ccc(F)cc3)CC2)cc1OC,-0.00189
10,Cc1cc(C(=O)N(C2CCCCC2)C2CCCCC2)no1,-0.0698
11,Cc1nn(CC(=O)OCC(=O)Nc2c(C(C)C)cccc2C(C)C)c(C)c1[N+](=O)[O-],-0.262
12,C=CCSc1nc(NC)c2sccc2n1,-0.598
13,CCOc1ccc(CN(Cc2ccco2)S(=O)(=O)c2ccc(-n3cnnn3)c(OC)c2)cc1,2.75
14,COc1ccc(C(=O)Nc2ccc(OC)c(OC)c2)cc1,-0.33
15,CCOc1ccc(C(=O)Nc2cc(C)on2)cc1OCC,-0.041
16,COc1ccc(S(=O)(=O)N2CCN(C(=O)Cc3cccs3)CC2)cc1,0.11
17,Cc1cccc(N2CN(Cc3cccnc3)CNC2=S)c1C,-0.278
18,CCSc1nccc(-c2nn(-c3ccc(C)cc3)ccc2=O)n1,-0.634
19,CC1CCc2nc(NC(=O)CN3CCN(Cc4ccc5c(c4)OCO5)CC3)sc2C1 (configuration not stated),2.47
20,CCOc1ccc2nc(N3C(=O)/C(=C/c4ccccc4)NC3=S)sc2c1,active: 3.66
21,Nc1nc(Nc2cccc(C(F)(F)F)c2)nc(C(F)(F)F)n1,-0.205
22,Cc1ccc(C)c(N2C(=O)c3ccc(C(=O)OCC(=O)c4c(N)n(C)c(=O)n(C)c4=O)cc3C2=O)c1,0.0527
23,Cc1cc(C)nc(N/C(=N\S(=O)(=O)Cc2ccccc2)Nc2cccc(Cl)c2C)n1,-0.996

row,Compound,z-score
1,Cc1ccc(/C=N/n2c(-c3cccnc3)n[nH]c2=S)s1,-0.311
2,CCOC(=O)C1=C(C)N(C)C(C)=C(C(=O)OCC)C1c1ccc(Cl)cc1,-0.177
3,Cc1c(Br)cc(-c2nnco2)cc1Br,-0.16
4,O=C(O)CSC(NC(=O)c1cccnc1)(C(F)(F)F)C(F)(F)F,-1.1
5,O=C(CCCNC(=O)/C(=C/c1ccccc1F)NC(=O)c1ccccc1)OCc1ccccc1,-0.128
6,CCOC(=O)c1c(C)[nH]c(C)c1C(=O)CSc1nnc(-c2ccco2)n1Cc1ccccc1,-1.07
7,CCC(C(=O)OCC(=O)Nc1c(Cl)cccc1Cl)c1ccccc1 (configuration not stated),-1.35
8,O=C(OCc1nnc(-c2ccc(Cl)cc2)o1)c1ccc(=O)n(Cc2ccccc2)n1,-0.645
9,Cc1ccccc1Cn1c2ccccc2c2cnn(CC(=O)N3CCN(c4ccccc4)CC3)c(=O)c21,0.371
10,Cc1ccc(OCC(=O)c2cc(C)n(C)c2C)c([N+](=O)[O-])n1,-0.137
11,Cc1ccc(-c2csc3ncnc(Nc4ccc(N5CCOCC5)cc4)c23)cc1,0.0875
12,CCCOc1ccc(NCC(=O)Nc2ccc(C)cc2C)cc1,-0.432
13,COc1ccc(CCNC(=O)/C(C#N)=C2\N=C(NC(=O)c3cccs3)c3ccccc32)cc1,-0.179
14,CC(=O)N1CCN(CC(=O)Nc2ccc(SC(F)F)cc2)CC1,-0.0272
15,O=C(/C=C/c1ccc(Cl)cc1Cl)NC(=S)Nc1ccc(CN2CCOCC2)cc1,0.0804
16,O=C(Nc1nc(N2C(=O)c3ccccc3C2=O)n(-c2ccccc2)n1)c1ccc(Cl)cc1,-0.0149
17,CCc1ccc(NS(=O)(=O)c2cc(OC)ccc2OC)cc1,-0.868
18,Cc1ncsc1CCOC(=O)C1C2CC3CC(C2)CC1C3 (configuration not stated),0.00939
19,Cc1csc(NC(=O)CSc2nnc(CCNC(=O)c3cccs3)n2C)n1,-0.0983
20,Cc1ccc(C(=O)Oc2cc(C)n(C)c(=O)c2)cc1,-0.267
21,COc1ccc(CNCCC(c2ccc(OC(C)C)cc2)C(C)C)cc1OC (configuration not stated),0.535
22,O=C(O)C1C(c2ccccc2)C(C(=O)Oc2ccc(O)cc2)C1c1ccccc1 (configuration not stated),-0.507
23,COc1ccc(NC(=O)CN(C)S(=O)(=O)c2ccccc2)cc1OC,-0.21

row,Compound,z-score
1,O=c1c2cccnc2[nH]c(=S)n1Cc1ccccc1,active: 3
2,CCOc1ccc(NC(=O)C2CC(=O)N(c3cc(C)cc(C)c3)C2)cc1 (configuration not stated),-0.0775
3,Cc1ccc(-c2cc(-c3ccccc3[N+](=O)[O-])[nH]n2)c(O)c1,-0.292
4,CCS(=O)(=O)N1Cc2ccccc2CC1C(=O)NCC12CC3CC(CC(C3)C1)C2 (configuration not stated),0.189
5,CCOc1ccc(N2C(=O)CC(N3CCC(O)(c4ccc(Br)cc4)CC3)C2=O)cc1 (configuration not stated),-0.0395
6,CC(=O)c1cccc(NC(=O)C2CCN(S(=O)(=O)c3ccccc3)CC2)c1,-0.0156
7,CC(=O)c1c(C)[nH]c(C(=O)COC(=O)c2cccc(S(=O)(=O)N(C)c3ccccc3)c2)c1C,0.0974
8,COc1cccc(Oc2cn[nH]c2-c2ccc(OC)cc2O)c1,0.852
9,COCc1cc(=O)[nH]c(/N=C(\N)Nc2ccc(C)cc2)n1,0.0425
10,COc1cc(OC)c2c(OC)cccc2n1,-0.165
11,O=C(Nc1cc(S(=O)(=O)N2CCCC2)ccc1OCC(F)(F)F)c1ccc(F)cc1,-0.267
12,Cc1cc(C)n(CC(C)O)c(=O)c1C#N (configuration not stated),-0.146
13,CC(=O)c1cccc(S(=O)(=O)NC2CCCCCC2)c1,-0.11
14,CCNS(=O)(=O)c1ccc(OCCNS(C)(=O)=O)cc1,-0.177
15,CCCCCCCC1CC(CSc2ncn[nH]2)OC1=O (configuration not stated),active: 5.73
16,Cc1ccc(C(c2nnnn2CC2CCCO2)N2CCN(C(=O)c3ccco3)CC2)cc1 (configuration not stated),0.413
17,COc1ccc(C(=O)n2nnc3ccccc32)cc1Br,-0.0377
18,Cc1cc2ncn(/N=C/c3cccnc3)c2cc1C,1.48
19,CSc1nc(C)c(CCOC(=O)c2cccc(C)c2)c(=O)[nH]1,0.169
20,C=CCn1c(Cc2c[nH]c3ccccc23)nnc1SCC(=O)NCc1ccccc1,1.02
